This is one part of the list.

The test has as its system PF3D7_0420300 AP2 domain 1 (GST-tagged). Put plainly: gcPBM binding intensity (ln(normalized median fluorescence intensity)); higher = stronger DNA binding. In outline:
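An Agilent 4 × 180k array carrying primer-extended double-stranded 36-bp intergenic genomic probes and negative controls received GST-tagged P. falciparum DNA-binding domains expressed in E. coli, about 25 μg on average, for 1 h. The binding buffer contained 1× PBS, 1% milk, 0.2 mg/ml BSA, 0.5% salmon testes DNA and 0.03% Triton X-100. Binding intensity is the top Masliner-normalised natural-log median intensity across replicate spots of either probe orientation, read after Alexa488 anti-GST antibody staining and a 488 nm scan.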
“TATCATATATTATAGCGTACTTATTTATTTATTTAT [XGTACX_site1676]”: the “gcPBM binding intensity (ln)” value came out at 9.43.

“AAAAAAAAAAAAAAAAGTACATGAAAAAAAGAAGAA [XGTACX_site8384]”: the “gcPBM binding intensity (ln)” value was 9.63.

For the sequence “TATAATAGTTCATAGGTGCAATATAATAAATTTATA [GTGCAC_site9573]”, the “gcPBM binding intensity (ln)” value stood at 9.13.

For “TTGTATTAAAATCAAGTGCATATAATTTAAGTTCAT [GTGCAC_site9495]”, the “gcPBM binding intensity (ln)” value stood at 9.04.

For “CTTTGGTTATAACACACATGCACACGTAAATAAATA [TGCATGCA_site976]”, the “gcPBM binding intensity (ln)” value came out at 9.55.

With “CATCACCTTTTTAAATGTACGCATAATACCAAAAAA [XGTACX_site1587]”, the “gcPBM binding intensity (ln)” value is 9.18.

For the sequence “GTAGGTTACAAAATGTGAGAGAAGCAAATATAGAAA [CACACA_negctrl_site1819]”, the “gcPBM binding intensity (ln)” value is 9.31.

For “TTTTGTTTTTAGTTTATACACACCATATTAATATAA [CACACA_site3102]”, the “gcPBM binding intensity (ln)” value was 9.52.

Regarding “CTGTATTTATTTTTCTGTACCAAATCACCCCTTGTA [XGTACX_site395]”, the “gcPBM binding intensity (ln)” value worked out at 9.19.

“TATATTTATAAATGAACACACACGCAATTTGAATCG [CACACA_site3370]”: the “gcPBM binding intensity (ln)” value is 9.74.

On to “TACGTTTTATGACACACACACAAAAAAAAAAAAAAA [CACACA_site7764]”, for which the “gcPBM binding intensity (ln)” value turned out to be 9.49.

On to “GATGTATAAAATAATACATGCATGTCCTACATATAT [TGCATGCA_site155]”, for which the “gcPBM binding intensity (ln)” value was 9.32.

For the sequence “TTTCTTTTTCGATATACACACTGTATGTGTCTAAAA [CACACA_site6054]”, the “gcPBM binding intensity (ln)” value turned out to be 9.3.

For “TTTCCGGTAATATGGAAATATATGTGGGTTTTTTTT [CACACA_negctrl_site1536]”, the “gcPBM binding intensity (ln)” value was determined as 9.37.

“ACTATTTTAAAAATATGTACATACGTTGTAATTTAA [XGTACX_site7999]”: the “gcPBM binding intensity (ln)” value came out at 9.16.

Consider “CGAAGGATAAACATACGTACATATATGTGTATAATA [XGTACX_site779]”, for which the “gcPBM binding intensity (ln)” value is 9.28.

Take “AATCGAAATCGTGCACGGACACATGCAGTAGCCGAG [XGTACX_site6001]”: the “gcPBM binding intensity (ln)” value was determined as 9.23.

Turning to “TATACCTATAAATACACACACATATATAAATAAATA [CACACA_site6730]”, the “gcPBM binding intensity (ln)” value stood at 10.

As to “ATATATATACACAATAGTACGTGTAATATTATTATT [XGTACX_site2151]”, the “gcPBM binding intensity (ln)” value was found to be 9.35.

Turning to “GAAGTTAGTGTTGACTGTACATATATATGTATATAT [XGTACX_site7243]”, the “gcPBM binding intensity (ln)” value stood at 9.37.

“TTTTCTTTTTGTTCGTGTACACACATGAAATTTATA [XGTACX_site3301]”: the “gcPBM binding intensity (ln)” value came to 9.51.

Take “AAACGTACATAATACACACACATGTATACATATAAA [CACACA_site2048]”: the “gcPBM binding intensity (ln)” value was determined as 9.89.

In the case of ATATTTTTATATGAGGTGCATATAATGACAATTAAG, the “gcPBM binding intensity (ln)” value was determined as 9.14.

As to “TCTTTTTATGTTCTAGAGCATTTTATTATTTAACAT [CACACA_negctrl_site1699]”, the “gcPBM binding intensity (ln)” value is 9.32.

As to ATACTATTTAAATGGGTGCTAAAAATAACAAAAATT, the “gcPBM binding intensity (ln)” value worked out at 9.34.

Take “AATGAAAAGTAAAATACACACACATAATATAATTTA [CACACA_site8608]”: the “gcPBM binding intensity (ln)” value stood at 10.

As for “TGTGTAAAAATCATGGGTACACATTTTGATACCAAT [XGTACX_site1779]”, the “gcPBM binding intensity (ln)” value worked out at 9.34.

Consider “AAACTTGACGAACACACACACACATATATAAAAAAA [CACACA_site6494]”, for which the “gcPBM binding intensity (ln)” value was found to be 10.1.

On to “TTTTTATAAAAAATTTACACTATATGACAGAAGTAA [XGTACX_negctrl_site481]”, for which the “gcPBM binding intensity (ln)” value is 8.94.

Regarding “ATAAATTAAAAACACACACACATCTGGATACCCCTA [CACACA_site5780]”, the “gcPBM binding intensity (ln)” value amounted to 10.1.

Consider “GGTGGTAAAAAACCTGCATGTCGAAATATTAAATAC [TGCATGCA_site33]”, for which the “gcPBM binding intensity (ln)” value came out at 9.25.

“AAAAAAAAAAAAAAGAGTACTCATATAAAAATATAA [XGTACX_site6551]”: the “gcPBM binding intensity (ln)” value was determined as 8.97.

In the case of “AAGAAGAAACAAAACACACACAGTCTTCTTTTCTAT [CACACA_site3088]”, the “gcPBM binding intensity (ln)” value was 9.9.

On to “TACAGAATTGTATATAGTACATAAAACAATATATAT [XGTACX_site7275]”, for which the “gcPBM binding intensity (ln)” value worked out at 9.37.

For the sequence “GTATATGAATAATATTTTATGGTAATTTTTTTTTTT [XGTACX_negctrl_site512]”, the “gcPBM binding intensity (ln)” value came out at 9.22.

Take “TTTTTTTTTTCAAATACATGCATTTATGTATAATAC [TGCATGCA_site722]”: the “gcPBM binding intensity (ln)” value stood at 8.96.

In the case of “TAGGAAAAAAATACAGTGCAATTTTTATATAAATAA [GTGCAC_site9979]”, the “gcPBM binding intensity (ln)” value amounted to 9.11.

As to “TTTTTTTTTTTTTTGTGTACTAATATTATAAATTTT [XGTACX_site4405]”, the “gcPBM binding intensity (ln)” value is 8.94.

Turning to “TACATATTTTATAACTGTACTTTTTTATTATCCAAT [XGTACX_site5396]”, the “gcPBM binding intensity (ln)” value was found to be 9.39.

Consider “TTTATATAAATCAAATGTACATATTCCAAATATATA [XGTACX_site8515]”, for which the “gcPBM binding intensity (ln)” value was 9.06.

With TTTTGTTATTTTTCAGTGCAATATGATAATAATATA, the “gcPBM binding intensity (ln)” value stood at 9.17.

Turning to “GAATCCTTAATATGAACACACAAATATATTACCCAT [CACACA_site186]”, the “gcPBM binding intensity (ln)” value is 9.6.

As for “AGAATTTTATTATATTGTACTTTTTATAAACCTTGT [XGTACX_site7495]”, the “gcPBM binding intensity (ln)” value turned out to be 9.19.

Take “TCTTTTTAACAAAAAAAAAAAAAAAAAAAAAAATTA [CACACA_negctrl_site1637]”: the “gcPBM binding intensity (ln)” value is 8.72.

(Values after the supplement of paper PMC11417369.)
